Experiment [1] concerns the target T1, human ADK (adenosine kinase), recombinant (UniProt P55263 2-362). Put plainly: MST.
In experiment [2] the target is T1, human ADK (adenosine kinase), …. Put plainly: MST. The source holds these as a separate data set.

T1 sequence (P55263 2-362): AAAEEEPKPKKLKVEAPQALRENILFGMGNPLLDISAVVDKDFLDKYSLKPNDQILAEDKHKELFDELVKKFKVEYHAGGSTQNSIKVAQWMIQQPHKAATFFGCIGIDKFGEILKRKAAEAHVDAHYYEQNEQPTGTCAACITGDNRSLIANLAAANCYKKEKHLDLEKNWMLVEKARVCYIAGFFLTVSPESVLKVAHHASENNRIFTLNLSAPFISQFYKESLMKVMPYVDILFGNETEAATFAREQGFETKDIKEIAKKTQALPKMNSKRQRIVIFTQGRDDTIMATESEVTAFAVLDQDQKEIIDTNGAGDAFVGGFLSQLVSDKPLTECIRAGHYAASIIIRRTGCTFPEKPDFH

B1: human NDPK-A (nucleoside diphosphate kinase A), full-length recombinant (enzyme)
chain: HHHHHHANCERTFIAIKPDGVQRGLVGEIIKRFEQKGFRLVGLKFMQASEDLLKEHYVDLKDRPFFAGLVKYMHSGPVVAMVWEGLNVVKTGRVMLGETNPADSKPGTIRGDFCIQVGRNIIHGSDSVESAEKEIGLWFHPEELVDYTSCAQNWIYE
As for B1, in experiment [1], the EC50 amounted to 2 nM. In addition, in experiment [2], the Kd came to 2 nM.

What is called EC50 is the midpoint of the concentration-response curve. In general, Kd refers to the equilibrium constant for the complex coming apart.

Source of the values: US20230203142A1 (published 2023).
